Test results: the supplement of paper PMC12217912
The other results are listed elsewhere or left out. Sequences were assembled here from the parent chain. Values near 0.05 are background.

B1: TEV protease; numbered along this chain (parent)
chain: MGESLFKGPRDYNPISSSICHLTNESDGHTTSLYGIGFGPFIITNKHLFRRNNGTLVVQSLHGVFKVKDTTTLQQHLVDGRDMIIIRMPKDFPPFPQKLKFREPQREERICLVTTNFQTKSMSSMVSDTSCTFPSGDGIFWKHWIQTKDGQCGSPLVSTRDGFIVGIHSASNFTNTNNYFTSVPKNFMELLTNQEAQQWVSGWRLNADSVLWGGHKVFMVKPEEPFQPVKEATQL

Variants of: B1
Assay: raw area under fraction-flipped curve 0-4 h after induction (AUC4h, not background-subtracted), DNA-recorder readout of cleavage of the substrate (dimensionless); higher = more cleavage of the substrate by the protease variant
Details: temperature: 34 °C; time window: 0-4 h after rhamnose induction
Description: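 In vivo DNA recorder in E. coli TOP10(DE3) ΔrhaA at 34 °C. Each TEVp single-site mutant (parent TEVp 0) is paired with a single-site variant of the 7-mer TEVs (canonical ENLYFQ|S). The substrate sits between flexible linkers in a Bxb1-sfGFP-TEVs-SsrA fusion, so cleavage stabilises Bxb1 and speeds flipping of a recombination array, read by NGS. The value is the raw area under the fraction-flipped curve over 0-4 h after rhamnose induction (AUC4h), with ≥20 reads per time point. It is not background-subtracted; inactive controls average about 0.047.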
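Note: Bxb1 expression induced with 0.2% (w/v) L-rhamnose at OD600 near 0.5, cultures sampled hourly, flipped fraction per protease–substrate barcode pair counted by paired-end Illumina sequencing.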

| Variant | area with substrate ENLYAQS | area with substrate ENLYDQS | area with substrate ENLYEQS | area with substrate ENLYGQS | area with substrate ENLYHQS | area with substrate ENLYIQS | area with substrate ENLYLQS | area with substrate ENLYMQS | area with substrate ENLYNQS | area with substrate ENLYPQS | area with substrate ENLYQQS | area with substrate ENLYRQS | area with substrate ENLYVQS | area with substrate ENLYWQS | area with substrate ENLYKQS | area with substrate ENLYSQS | area with substrate ENLYYQS | area with substrate ENLYCQS | area with substrate ENLYTQS |
| --- | --- | --- | --- | --- | --- | --- | --- | --- | --- | --- | --- | --- | --- | --- | --- | --- | --- | --- | --- |
| E3G | 0.0436 | 0.0566 | 0.0653 | 0.0647 | 0.0598 | 0.0411 | 0.0508 | 0.059 | 0.0386 | 0.0706 | 0.0508 | 0.0471 | 0.057 | 0.0709 | – | – | – | – | – |
| S4E | 0.09 | 0.0496 | 0.0697 | – | 0.0747 | 0.126 | – | 0.0958 | 0.0716 | 0.0742 | – | 0.0596 | – | 0.113 | 0.0922 | 0.0713 | 0.0591 | – | – |
| R10I | 0.0621 | 0.0622 | 0.0534 | 0.0719 | 0.0712 | – | – | – | 0.0656 | 0.0576 | 0.0595 | 0.0675 | – | 0.0652 | 0.0514 | 0.0822 | – | – | – |
| D11I | 0.061 | 0.0679 | 0.0698 | 0.0661 | 0.0475 | 0.131 | – | 0.0847 | 0.07 | 0.0672 | 0.0697 | – | 0.106 | – | – | – | – | 0.0903 | – |
| S18P | 0.0855 | 0.0407 | 0.0518 | 0.0444 | 0.0467 | 0.0853 | 0.056 | – | 0.0724 | 0.0611 | – | 0.0516 | 0.079 | 0.0567 | 0.0488 | 0.0648 | 0.0742 | – | 0.0829 |
| I19Q | 0.0747 | 0.0517 | 0.0664 | – | 0.0715 | – | – | 0.0996 | – | 0.0682 | 0.0311 | 0.0537 | 0.119 | 0.0599 | 0.0571 | 0.0793 | 0.0665 | – | 0.0791 |
| I19T | 0.0834 | – | – | 0.0708 | – | 0.112 | – | – | 0.0603 | – | 0.0694 | 0.0538 | 0.168 | 0.0725 | 0.182 | 0.0641 | – | – | 0.0928 |
| C20E | 0.0508 | 0.0419 | 0.0383 | 0.0415 | 0.0447 | 0.0322 | 0.0493 | 0.0444 | 0.0555 | 0.0398 | 0.046 | 0.0493 | 0.0468 | 0.0655 | 0.0111 | 0.0427 | 0.06 | – | – |
| H21S | 0.0836 | 0.0584 | 0.0608 | 0.0653 | 0.0616 | 0.1 | – | 0.0693 | 0.0656 | 0.0638 | 0.0653 | 0.0627 | 0.128 | 0.0648 | 0.0596 | 0.0855 | – | – | – |
| L22A | 0.0652 | 0.0461 | 0.0528 | 0.0589 | 0.0487 | 0.0838 | – | 0.0585 | 0.0516 | 0.0489 | 0.0556 | 0.0545 | 0.079 | 0.0584 | – | 0.0661 | – | – | 0.0531 |
| E25A | 0.0705 | 0.0598 | 0.0671 | – | 0.0769 | 0.143 | 0.0867 | 0.0916 | 0.063 | 0.0657 | 0.0694 | 0.0739 | 0.114 | 0.0924 | 0.0514 | 0.055 | 0.0575 | 0.0906 | 0.0819 |
| D27V | 0.0611 | 0.052 | 0.065 | 0.0656 | 0.0544 | 0.0972 | 0.0653 | 0.0655 | 0.0638 | 0.0461 | 0.0656 | 0.0535 | – | 0.0604 | – | 0.0828 | – | – | 0.0498 |
| G28S | 0.0627 | 0.0578 | – | 0.0624 | 0.0588 | – | – | 0.0582 | 0.0675 | 0.0748 | – | 0.066 | 0.103 | 0.0706 | 0.0664 | 0.0766 | – | – | – |
| T31C | 0.0824 | 0.0639 | 0.0726 | 0.0726 | 0.0645 | 0.131 | – | 0.0662 | 0.0727 | 0.0612 | 0.0597 | 0.0701 | 0.132 | 0.0924 | 0.0197 | – | 0.067 | – | 0.0811 |
| T31R | 0.0741 | – | 0.0568 | 0.0546 | – | 0.071 | 0.104 | 0.0608 | 0.0538 | 0.0604 | 0.0884 | – | 0.0662 | 0.0735 | 0.0579 | 0.0747 | 0.0606 | 0.0706 | 0.0529 |
| L33F | 0.0711 | 0.067 | 0.0611 | 0.0683 | 0.0668 | – | – | 0.0656 | 0.0588 | 0.0525 | 0.062 | 0.0597 | 0.065 | 0.0559 | 0.0683 | 0.0576 | 0.06 | – | – |
| Y34C | 0.0805 | 0.0494 | 0.0673 | 0.102 | 0.0706 | – | – | 0.0726 | – | 0.0663 | – | 0.0652 | – | 0.0873 | 0.0553 | – | 0.0616 | – | – |
| I36N | 0.0608 | 0.0491 | 0.055 | 0.0558 | 0.0553 | 0.0804 | 0.0547 | 0.0302 | 0.0489 | 0.0546 | – | 0.0388 | – | 0.0548 | 0.0282 | 0.0542 | 0.0456 | 0.0585 | – |
| G37R | 0.0657 | 0.0708 | 0.0626 | 0.0624 | 0.0565 | 0.0558 | 0.0683 | 0.0642 | 0.0457 | 0.0811 | 0.0614 | 0.0405 | 0.0769 | 0.0721 | 0.0416 | 0.0676 | 0.0503 | 0.0633 | – |
| G39K | 0.0455 | 0.0404 | 0.0235 | 0.044 | 0.0548 | 0.0383 | 0.0366 | 0.058 | 0.0461 | 0.0574 | 0.0419 | 0.0497 | 0.0509 | 0.0269 | 0.0506 | 0.0255 | – | 0.0499 | 0.0377 |
| G39V | 0.0378 | 0.0454 | 0.0511 | 0.0414 | 0.0534 | 0.0383 | 0.047 | 0.0446 | 0.0383 | 0.0424 | 0.0367 | 0.0543 | – | 0.0528 | 0.042 | 0.037 | 0.0354 | – | – |
| P40A | 0.032 | 0.0597 | 0.0555 | 0.0621 | 0.0736 | 0.121 | 0.0898 | 0.0764 | – | 0.0708 | – | 0.0587 | 0.129 | 0.0782 | 0.0482 | 0.0802 | 0.0786 | 0.119 | – |
| T44L | 0.0589 | 0.0509 | 0.0548 | 0.0615 | 0.0603 | 0.075 | 0.0645 | – | 0.0665 | 0.0544 | – | 0.0634 | – | 0.0509 | 0.0216 | 0.0601 | 0.0557 | – | – |
